In patent US20230322822A1, “ARYL PHOSPHOROUS OXIDE COMPOUNDS AND USE THEREOF” (Chengdu Di'ao Jiuhong Pharmaceutical Factory, priority 2020, published 2023):

Tests used:
EGFR-T790M/Del19 = EGFR-T790M/Del19 (Homo sapiens, UniProt P00533, T790M, form not given); assay: Enzymatic activity test (ADP-Glo) EGFR-T790M/Del19; type: biochemical; conditions: kinase
Method: (§1) • 1. […] Test information:
(§2) To assess the effect of compounds on the activity of wild-type and mutant EGFR kinases, kinase activity was tested by measuring ATP consumption in an enzymatic reaction using an ADP-Glo (Promega Corporation) kit. Samples to be tested were dissolved in DMSO and diluted in a gradient. In a microplate, an EGFR kinase, a reaction buffer (containing Tris-HCl with a pH of 7.5, MgCl2, DTT and BSA), a kinase substrate Poly(Glu4, Tyr1) and a sample (a total volume of 20 μL per well) were added per well, while a blank control (no enzyme and sample) and a negative control (no sample) were set up; incubated for 15 minutes at 23° C.; added with 5 μL of ATP, and reacted at 23° C. for 60 minutes; added with ADP-Glo Reagent, and continuously reacted for 40 minutes at room temperature to inactivate the redundant ATP; then, added with a Kinase Detection Reagent, and reacted at room temperature for 30 minutes, then the chemiluminescence intensity L of each well was measured. […] IC50 values were calculated according to the above calculation using 4Parameter Logistic Model in XLfit software. • 3.

EGFR-Del19 = EGFR-Del19 (Homo sapiens, UniProt P00533); assay: Enzymatic activity test (ADP-Glo) EGFR-Del19; type: biochemical; conditions: kinase
Chain of EGFR-Del19 (P00533 25-1210 limits assumed): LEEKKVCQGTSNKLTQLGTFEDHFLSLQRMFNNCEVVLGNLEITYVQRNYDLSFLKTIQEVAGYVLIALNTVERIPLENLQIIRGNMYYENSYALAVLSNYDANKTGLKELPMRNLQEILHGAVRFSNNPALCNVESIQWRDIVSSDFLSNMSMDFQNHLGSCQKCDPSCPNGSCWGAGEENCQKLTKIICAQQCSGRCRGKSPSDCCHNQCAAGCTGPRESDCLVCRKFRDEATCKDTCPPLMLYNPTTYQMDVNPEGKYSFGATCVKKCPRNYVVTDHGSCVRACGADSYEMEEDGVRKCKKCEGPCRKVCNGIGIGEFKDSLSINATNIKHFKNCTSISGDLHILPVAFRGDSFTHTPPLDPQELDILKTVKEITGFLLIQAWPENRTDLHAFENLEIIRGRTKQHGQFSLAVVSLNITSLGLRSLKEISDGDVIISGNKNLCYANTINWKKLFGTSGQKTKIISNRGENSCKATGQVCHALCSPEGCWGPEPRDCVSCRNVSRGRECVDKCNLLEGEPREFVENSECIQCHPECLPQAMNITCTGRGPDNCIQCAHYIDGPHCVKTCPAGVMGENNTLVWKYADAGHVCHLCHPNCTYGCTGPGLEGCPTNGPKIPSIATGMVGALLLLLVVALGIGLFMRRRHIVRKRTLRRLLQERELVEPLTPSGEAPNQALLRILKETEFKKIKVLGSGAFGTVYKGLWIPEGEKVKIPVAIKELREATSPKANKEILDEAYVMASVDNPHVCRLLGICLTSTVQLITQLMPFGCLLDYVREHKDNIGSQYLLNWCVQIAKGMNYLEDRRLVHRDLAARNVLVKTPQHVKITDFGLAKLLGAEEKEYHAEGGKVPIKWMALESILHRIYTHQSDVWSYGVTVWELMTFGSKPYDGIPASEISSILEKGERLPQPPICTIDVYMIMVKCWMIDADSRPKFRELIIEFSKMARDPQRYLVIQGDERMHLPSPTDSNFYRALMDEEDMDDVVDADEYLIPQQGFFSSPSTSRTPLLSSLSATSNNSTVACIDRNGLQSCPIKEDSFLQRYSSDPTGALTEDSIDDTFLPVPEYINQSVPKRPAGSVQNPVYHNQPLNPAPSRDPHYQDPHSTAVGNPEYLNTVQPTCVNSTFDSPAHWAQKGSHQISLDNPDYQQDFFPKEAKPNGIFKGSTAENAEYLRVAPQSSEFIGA
Method: as §1, §2

Structure (SMILES) | IC50 (EGFR-T790M/Del19) [nM] | IC50 (EGFR-Del19) [nM]
COc1cc(N2CCC(N3CCN(C)CC3)CC2)c(C)cc1Nc1ncc(Br)c(Nc2ccc(F)cc2P(C)(C)=O)n1 [Compound 11] | 3.4 | 27.4
COc1cc(N2CCC(N3CCN(C)CC3)CC2)c(C)cc1Nc1ncc(Br)c(Nc2cc(C)ccc2P(C)(C)=O)n1 [Compound 9] | 11 | 46.1
